From PubChem BioAssay (Tox21)
Several values for one entry are separate records, joined by “and”; a condition that tells them apart may be missing. Equal values may be shown once. Inconclusive results, whose numbers are uncertain, are shown with a selection of clear calls. For some of these results: Potencies beside an inconclusive call are fits to weak or partial responses and may not hold up. Activity calls are given as the source filed them. Unless noted, the call rests on the fitted dose curve; in most records, active means well fitted curve in the direction sought with a large enough effect in the repeat runs; inconclusive means weak or mixed curves; inactive means no such curve, though single readings can be large; an effect the other way counts as inactive or inconclusive.

Legend:
[1] = biological target: Estrogen receptor beta (Homo sapiens) (UniProt Q92731); experiment: qHTS assay to identify small molecule antagonists of the estrogen receptor beta (ER-beta) signaling pathway (AID 1259378; active means well fitted inhibition curve with a large enough effect in the signal ratio in the repeat runs, not every such curve was filed as active; inconclusive means weak or mixed curves, or effect the other way; inactive means no such curve, though single readings can be large or run the other way; the % refers to the signal ratio; further: potency means the concentration at half of the fitted maximal effect; on activity, negative = inhibition: on the % scale 0 is the no-effect control and ±100 the full control effect); conditions: ER-beta-UAS-bla HEK293T, beta-lactamase FRET ratio, 16 h; activity, negative = inhibition: at 92.4 µM (top of the series) unless noted
UniProt Q92731, sequence (Q92731 whole entry, looked up): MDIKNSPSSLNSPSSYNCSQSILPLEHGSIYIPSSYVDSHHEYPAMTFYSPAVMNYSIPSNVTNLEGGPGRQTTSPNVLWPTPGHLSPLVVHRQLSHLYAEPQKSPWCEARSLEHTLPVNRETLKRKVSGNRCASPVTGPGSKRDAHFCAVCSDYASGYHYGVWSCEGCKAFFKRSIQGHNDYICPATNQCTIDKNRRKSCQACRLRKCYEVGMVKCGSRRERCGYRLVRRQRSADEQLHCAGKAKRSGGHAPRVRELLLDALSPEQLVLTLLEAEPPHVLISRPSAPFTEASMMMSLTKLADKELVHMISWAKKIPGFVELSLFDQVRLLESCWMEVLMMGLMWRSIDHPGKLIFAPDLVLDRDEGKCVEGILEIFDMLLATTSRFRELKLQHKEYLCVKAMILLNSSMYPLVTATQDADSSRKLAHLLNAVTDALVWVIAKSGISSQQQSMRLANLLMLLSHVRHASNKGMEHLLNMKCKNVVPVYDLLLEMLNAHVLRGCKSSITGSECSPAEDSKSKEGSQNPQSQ
Outline: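 ER-beta-UAS-bla HEK293T (GripTite) cells in 2% charcoal-stripped FBS medium were preincubated 6 hr at 37C, dosed with compound, then stimulated with 1 nM E2 (final) for 16 hr; beta-lactamase reporter read by B/G FRET fluorescence after 2 hr substrate loading.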

[2] = qHTS assay to identify small molecule agonists of the estrogen receptor beta (ER-beta) signaling pathway - cell viability counter screen (AID 1259380); further: nearly all actives have a fitted effect of over 30% in size; further: potency means the concentration at half of the fitted maximal effect
Outline: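 Cell viability counter screen: CellTiter-Glo luminescence (30 min, room temperature) measured in the same wells as the beta-lactamase readout, after 16 hr compound exposure at 37C of ER-beta-bla HEK293T cells in 2% charcoal-stripped FBS medium.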

[3] = qHTS assay to identify small molecule agonists of the progesterone receptor (PR) signaling pathway - cell viability counter screen (AID 1346799; calls by dose curve; further: potency means the concentration at half of the fitted maximal effect; nearly all actives have a fitted effect of over 45% in size)
Outline: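 Using the same plates as the PR reporter screen, HEK293T PR-UAS-bla cells received compounds for 16 hr at 37C and were then lysed with CellTiter-Glo; luminescence was read 30 min later at room temperature.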

[4] = qHTS assay to identify small molecule antagonists of the estrogen receptor beta (ER-beta) signaling pathway - cell viability counter screen (AID 1259382); further: potency means the concentration at half of the fitted maximal effect; nearly all actives have a fitted effect of over 55% in size
Outline: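 Cytotoxicity was measured in the same wells by CellTiter-Glo luminescence after 30 min at room temperature. Cells were ER-beta-bla HEK293T in charcoal-stripped serum, given compound together with 1 nM E2 and incubated 16 h at 37C.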

[5] = qHTS assay to identify small molecule antagonists of the progesterone receptor (PR) signaling pathway - cell viability counter screen (AID 1346798); further: potency means the concentration at half of the fitted maximal effect; nearly all actives have a fitted effect of over 50% in size
Outline: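 Measures cytotoxicity in parallel with the PR antagonist reporter read: HEK293T PR-UAS-bla cells get compound and R5020 for 16 hr, and remaining viable cells are quantified by CellTiter-Glo luminescence.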

[6] = biological target: Thyrotropin receptor (Homo sapiens) (UniProt P16473); experiment: qHTS assay to identify small molecule antagonists of the thyroid stimulating hormone receptor (TSHR) signaling pathway (AID 1259385; calls by dose curve; further: on the % scale 0 is the no-effect control and ±100 the full control effect; nearly all actives have a fitted effect of over 20% in size); conditions: TSHR-HEK293 cAMP HTRF, TSH-stimulated antagonist mode; activity change, negative = inhibition: at 92.4 µM (top of the series) unless noted
UniProt P16473, sequence (P16473 whole entry, looked up): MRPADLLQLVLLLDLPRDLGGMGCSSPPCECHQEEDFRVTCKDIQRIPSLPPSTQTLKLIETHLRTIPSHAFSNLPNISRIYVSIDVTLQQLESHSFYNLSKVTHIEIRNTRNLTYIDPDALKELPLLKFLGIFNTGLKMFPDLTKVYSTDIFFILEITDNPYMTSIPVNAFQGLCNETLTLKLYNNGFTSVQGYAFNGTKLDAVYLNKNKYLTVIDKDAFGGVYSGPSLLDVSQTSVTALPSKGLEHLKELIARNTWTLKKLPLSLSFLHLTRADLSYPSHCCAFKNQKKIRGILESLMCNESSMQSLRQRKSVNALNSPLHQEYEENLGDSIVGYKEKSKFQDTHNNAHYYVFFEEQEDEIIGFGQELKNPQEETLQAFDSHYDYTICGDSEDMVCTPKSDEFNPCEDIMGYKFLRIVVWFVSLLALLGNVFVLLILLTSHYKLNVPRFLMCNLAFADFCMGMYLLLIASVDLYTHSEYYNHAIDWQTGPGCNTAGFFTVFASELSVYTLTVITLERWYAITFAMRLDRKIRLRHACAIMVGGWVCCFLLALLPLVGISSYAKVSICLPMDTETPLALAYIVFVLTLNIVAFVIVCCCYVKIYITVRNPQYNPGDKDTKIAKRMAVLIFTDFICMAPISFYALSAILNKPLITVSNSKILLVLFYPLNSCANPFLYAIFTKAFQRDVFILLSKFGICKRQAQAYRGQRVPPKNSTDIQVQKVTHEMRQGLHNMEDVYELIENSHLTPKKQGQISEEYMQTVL
Outline: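 TSHR-HEK293 cells were plated and held 18 h at 37C/5% CO2, then given compound plus Ro20-1724 and stimulated with TSH at 1.5 ng/mL final. After 30 min at room temperature, cAMP was detected with cAMP-d2/anti-cAMP-cryptate (1 h) by fluorescence.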

[7] = qHTS assay to identify small molecule agonists of the androgen receptor (AR) signaling pathway in the presence of an antagonist - cell viability counter screen (AID 1259379); further: potency means the concentration at half of the fitted maximal effect; nearly all actives have a fitted effect of over 25% in size
Outline: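 Cytotoxicity counter-screen run in the same wells as the nilutamide-challenged (3.0 µM final) AR agonist assay in MDA-kb2 cells. Compounds tested at 15 concentrations for 16 h, 37 °C without CO2; CellTiter-Fluor fluorescence read.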

[8] = qHTS assay to identify small molecule agonists of the TGF-beta/Smad signaling pathway (AID 1346859; active means well fitted activation curve with a large enough effect in the signal ratio in the repeat runs, not every such curve was filed as active; inconclusive means weak or mixed curves; the % refers to the signal ratio; further: on the % scale 0 is the no-effect control and ±100 the full control effect); conditions: SBE-bla HEK293T, TGF-beta/Smad beta-lactamase reporter, 5 h; activation: at 76.8 µM (top of the series)
Outline: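 Beta-lactamase reporter activity downstream of Smad binding elements was measured in stably transfected HEK 293T cells; compounds were incubated for 5 hr, substrate for 2 hr at room temperature.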

[9] = biological target: Progesterone receptor (Homo sapiens) (UniProt P06401); experiment: qHTS assay to identify small molecule antagonists of the progesterone receptor (PR) signaling pathway (AID 1346795; active means well fitted inhibition curve with a large enough effect in the signal ratio in the repeat runs, not every such curve was filed as active; inconclusive means weak or mixed curves; the % refers to the signal ratio; further: potency means the concentration at half of the fitted maximal effect; on activity change, negative = inhibition: on the % scale 0 is the no-effect control and ±100 the full control effect); conditions: PR-UAS-bla HEK293T, beta-lactamase FRET ratio, 16 h; activity change, negative = inhibition: at 92.4 µM (top of the series) unless noted
UniProt P06401, sequence (P06401 whole entry, looked up): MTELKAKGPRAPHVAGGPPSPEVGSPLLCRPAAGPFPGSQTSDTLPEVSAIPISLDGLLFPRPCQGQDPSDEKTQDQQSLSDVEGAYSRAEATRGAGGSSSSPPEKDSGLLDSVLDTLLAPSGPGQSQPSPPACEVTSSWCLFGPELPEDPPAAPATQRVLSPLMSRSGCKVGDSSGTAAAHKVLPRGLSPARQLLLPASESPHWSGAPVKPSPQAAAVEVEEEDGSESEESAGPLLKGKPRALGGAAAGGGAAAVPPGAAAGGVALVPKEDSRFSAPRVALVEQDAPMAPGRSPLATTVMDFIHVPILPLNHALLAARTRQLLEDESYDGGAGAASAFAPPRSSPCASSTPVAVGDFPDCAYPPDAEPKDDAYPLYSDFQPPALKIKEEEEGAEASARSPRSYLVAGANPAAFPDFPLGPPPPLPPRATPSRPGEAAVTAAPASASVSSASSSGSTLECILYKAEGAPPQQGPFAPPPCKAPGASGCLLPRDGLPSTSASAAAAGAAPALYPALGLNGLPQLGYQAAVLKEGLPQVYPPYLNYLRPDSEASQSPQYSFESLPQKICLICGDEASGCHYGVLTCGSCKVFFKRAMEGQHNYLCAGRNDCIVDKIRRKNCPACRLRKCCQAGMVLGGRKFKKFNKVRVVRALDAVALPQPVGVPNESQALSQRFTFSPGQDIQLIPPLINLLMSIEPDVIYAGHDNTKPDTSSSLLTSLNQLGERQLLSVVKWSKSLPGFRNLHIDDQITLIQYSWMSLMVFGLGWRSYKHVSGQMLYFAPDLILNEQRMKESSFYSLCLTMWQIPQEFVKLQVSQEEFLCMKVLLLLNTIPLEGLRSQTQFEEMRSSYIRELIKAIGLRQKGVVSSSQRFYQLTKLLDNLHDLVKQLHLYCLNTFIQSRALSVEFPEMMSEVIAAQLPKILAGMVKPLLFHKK
Outline: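 Screening used a GripTite HEK293T line with PR-responsive UAS-beta-lactamase. Cells were challenged with compound in the presence of 1 nM R5020 final for 16 hr at 37C; B/G FRET substrate, 2 hr room temperature, fluorescence.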

[10] = qHTS assay to identify small molecule agonists of the estrogen receptor alpha (ER-alpha) signaling pathway in the presence of an antagonist - cell viability counter screen (AID 1259386); further: potency means the concentration at half of the fitted maximal effect; nearly all actives have a fitted effect of over 30% in size
Outline: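 Compounds tested at 15 concentrations for 22 h at 37C alongside 10.0nM (final) ICI-182,780 antagonist, in VM7Luc4E2 cells grown in phenol red-free, charcoal-stripped medium. Viability read by CellTiter-Fluor fluorescence after 1 h reagent incubation.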
Tags describe the fitted curve by direction and shape or compound fluorescence and quenching.

Q: With C#CCOC(=O)[C@@H](C)Oc1ccc(Oc2ncc(Cl)cc2F)cc1 as the molecule, how does the activity, negative = inhibition [1] read?
A: inconclusive: -18.8%

Q: And the Potency [2]?
A: inconclusive: 27.2 µM [rising, single point]

Q: And the Potency [3]?
A: inconclusive: 6.08 µM [rising, partial curve, poor fit]

Q: What does the source list for CC(=O)c1ccc2c(c1)N(CCCN(C)C)c1ccccc1S2?
A: activity, negative = inhibition [1]: inconclusive: -30.4% [at 42.5 µM]; Potency [2]: inconclusive: 33.5 µM [cytotoxic, single point]; Potency [4]: inconclusive: 29.8 µM [cytotoxic]; Potency [5]: inconclusive: 26.6 µM [cytotoxic, partial curve, poor fit]

Q: What does the source list for Cn1c(=O)c2c(ncn2CC(=O)O)n(C)c1=O?
A: Potency [1]: inactive; Potency [2]: inconclusive: 0.298 µM [cytotoxic, single point]

Q: With CC[C@H](C)[C@@H](C(=O)O)n1sc2ccccc2c1=O as the molecule, how does the activity, negative = inhibition [1] read?
A: inconclusive: -1.62%

Q: And the Potency [2]?
A: active: 54.5 µM

Q: And the Potency [6]?
A: inactive

Q: What about the Potency [5] of the same molecule?
A: active: 30.6 µM

Q: Which Potency [1] does the source give for CC(C)(N)CO here?
A: inactive

Q: And the Potency [2]?
A: inactive

Q: What does the source list for Cc1cc(O)c2c(O)c3c(O)cccc3cc2c1?
A: activity, negative = inhibition [1]: inconclusive: -34.2% [at 42.5 µM]; Potency [7]: inconclusive: 29.8 µM [cytotoxic, partial curve, poor fit]; Potency [3]: inconclusive: 33.5 µM; Potency [8]: inactive

Q: Which results are given for C=C(C)C(=O)Nc1ccc(Cl)c(Cl)c1?
A: activity, negative = inhibition [1]: inconclusive: -50%; Potency [2]: active: 55 µM and active: 54.3 µM; Potency [9]: active: 24.6 µM and active: 48.4 µM; Potency [3]: inconclusive: 69.3 µM

Q: Which Potency [1] does the source give for CC(=O)c1ccc2c(c1)N(CCCN1CCC(CCO)CC1)c1ccccc1S2 here?
A: active: 15 µM

Q: And the Potency [7]?
A: inconclusive: 23.7 µM [cytotoxic, partial curve]

Q: And the Potency [10]?
A: inconclusive: 7.5 µM [cytotoxic, full curve]

Q: What about the activity change, negative = inhibition [9] of the same molecule?
A: inconclusive: -36.5% [at 42.5 µM]

Q: What about the Potency [5] of the same molecule?
A: inconclusive: 8.41 µM [cytotoxic, full curve]

Q: And the Potency [3]?
A: inconclusive: 8.41 µM [cytotoxic, partial curve]

Q: For CC(Oc1c(Cl)cccc1Cl)C1=NCCN1 (centres undefined), which Potency [1] is on record?
A: inactive

Q: And the Potency [2]?
A: inactive

Q: And the Potency [9]?
A: inconclusive: 33.5 µM [falling, single point]

Q: And the Potency [5]?
A: active: 29.8 µM

Q: What about the Potency [3] of the same molecule?
A: inconclusive: 29.8 µM [cytotoxic, partial curve]
